This is an account of results in the BET-seq Pho4 binding data (Le et al. 2018).

The other results are listed elsewhere or left out. These are noisy estimates, calculated here from bound and input reads.

This experiment has as its target T1, Pho4 (S. cerevisiae) (UniProt P07270).
T1 sequence: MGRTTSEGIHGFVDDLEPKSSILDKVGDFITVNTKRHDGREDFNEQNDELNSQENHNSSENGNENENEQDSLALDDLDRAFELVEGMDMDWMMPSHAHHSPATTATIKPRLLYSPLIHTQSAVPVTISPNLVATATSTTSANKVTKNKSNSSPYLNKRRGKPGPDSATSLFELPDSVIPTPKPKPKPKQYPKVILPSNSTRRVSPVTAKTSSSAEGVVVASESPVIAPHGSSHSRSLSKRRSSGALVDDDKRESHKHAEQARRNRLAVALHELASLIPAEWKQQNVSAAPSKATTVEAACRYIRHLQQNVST
The experiment can be described thus: relative binding free energy (BET-seq); higher = weaker binding. The following applies: reference: library average.
With ATTATCACGTGTTGTG, the “relative binding free energy” value came out at 0.16 kcal/mol.
The figure for GGTGTCACGTGGCTAA is -0.03 kcal/mol.
With TATGGCACGTGAGCGT, the “relative binding free energy” value was -0.05 kcal/mol.
Take TGAATCACGTGGGGGC: the “relative binding free energy” value is 0.08 kcal/mol.
The figure for GTATGCACGTGTCGTT is 0.16 kcal/mol; for TCAGTCACGTGGCGAG it is 0.13 kcal/mol.
GGTTACACGTGAGGGC: the “relative binding free energy” value was found to be 0.26 kcal/mol.
The figure for TATCGCACGTGCTTGT is 0.03 kcal/mol; for TAATCCACGTGGGATT it is 0.01 kcal/mol; for ATTTTCACGTGAAGTT it is 0.39 kcal/mol.
With TTAGGCACGTGAGATT, the “relative binding free energy” value is 0.29 kcal/mol.
The figure for GGGTCCACGTGGTATG is 0.02 kcal/mol; for TAGGTCACGTGCGGGG it is 0 kcal/mol.
As for GTGGACACGTGTTCAG, the “relative binding free energy” value worked out at 0.09 kcal/mol.
Regarding GGGAGCACGTGGTATG, the “relative binding free energy” value is -0.06 kcal/mol.
As for TATTTCACGTGTGTAT, the “relative binding free energy” value turned out to be 0.22 kcal/mol.
On to ACAGTCACGTGGTTGG, for which the “relative binding free energy” value was -0.06 kcal/mol.
Next, TAGGTCACGTGGGGGT: 0.1 kcal/mol; TCTCGCACGTGTTGGT: -0.03 kcal/mol.
Next, AGACGCACGTGAGTGG: -0.07 kcal/mol; AGAGTCACGTGGGCAA: 0.01 kcal/mol; GTGGTCACGTGATCGG: 0.26 kcal/mol.
Next, TTCTTCACGTGCGATT: 0.46 kcal/mol; AAGGGCACGTGGATAG: -0.17 kcal/mol; ATGTACACGTGGGAGT: -0.14 kcal/mol.
In the case of TTGGTCACGTGGGCGG, the “relative binding free energy” value was -0.08 kcal/mol.
Next, AGCGACACGTGGTGGA: 0.1 kcal/mol; GGAAACACGTGCTTGT: 0.09 kcal/mol; GTTTACACGTGCGATT: 0.05 kcal/mol.
Consider AATATCACGTGGTGGC, for which the “relative binding free energy” value came out at 0.03 kcal/mol.
Next, GTATGCACGTGGGGGT: -0.11 kcal/mol; GCGTTCACGTGTGGCA: 0.35 kcal/mol.
The figure for ATGAGCACGTGTTTTG is 0.04 kcal/mol.
In the case of AGGGACACGTGGTCTT, the “relative binding free energy” value is 0.05 kcal/mol.
Next, ATTTACACGTGAATAT: 0.16 kcal/mol; CGGGTCACGTGGTGAG: 0.01 kcal/mol; GAGGTCACGTGGCCTG: 0.11 kcal/mol.
On to TTAGCCACGTGTGGGG, for which the “relative binding free energy” value was 0 kcal/mol.
The figure for AATTTCACGTGATATA is 0.44 kcal/mol.
Next, TGATACACGTGTGTCG: -0.03 kcal/mol.
In the case of CGTGACACGTGTTGCG, the “relative binding free energy” value turned out to be 0.04 kcal/mol.
Next, ATCTTCACGTGTGTGG: 0.15 kcal/mol.
Turning to TAAGGCACGTGTTTTA, the “relative binding free energy” value was 0.01 kcal/mol.
On to TTATGCACGTGAGGCG, for which the “relative binding free energy” value was 0.13 kcal/mol.
In the case of TTCATCACGTGGCGGT, the “relative binding free energy” value came out at 0.14 kcal/mol.
For TGGCGCACGTGTCTTG, the “relative binding free energy” value is -0.03 kcal/mol.
Regarding GTTGTCACGTGTGCTC, the “relative binding free energy” value is 0.2 kcal/mol.
The figure for ACAATCACGTGGTGAT is 0.15 kcal/mol; for AGGAGCACGTGGATGA it is -0.01 kcal/mol; for GTTAGCACGTGGCGAG it is 0.11 kcal/mol.
Next, GTCTGCACGTGAATGG: 0.1 kcal/mol; GTGCTCACGTGGGTTA: 0.18 kcal/mol; GTGCGCACGTGAAGTA: 0.2 kcal/mol.
The figure for TGGTGCACGTGCGGCT is -0.06 kcal/mol.
As to GTCGGCACGTGTTGGC, the “relative binding free energy” value is 0.05 kcal/mol.
Consider AGTTACACGTGTTGCT, for which the “relative binding free energy” value stood at 0.17 kcal/mol.
Turning to TAGGACACGTGTTAAG, the “relative binding free energy” value turned out to be 0.06 kcal/mol.
The figure for GGGAACACGTGTAGTT is 0.23 kcal/mol.
Regarding ATTCTCACGTGGTAAT, the “relative binding free energy” value was 0.16 kcal/mol.
Next, TGGGACACGTGAGGTC: 0.15 kcal/mol; AGTGGCACGTGCTCTG: -0.26 kcal/mol.
For the sequence TGAAGCACGTGAAGTG, the “relative binding free energy” value is 0.25 kcal/mol.
For TTGGCCACGTGTTAGG, the “relative binding free energy” value turned out to be 0.03 kcal/mol.
The figure for TGCGGCACGTGGTCGG is -0.21 kcal/mol; for GGTACCACGTGTAGTT it is 0.24 kcal/mol; for AATTTCACGTGGATGT it is 0.22 kcal/mol.
Next, TTATACACGTGAGCGG: 0.22 kcal/mol; GGTAACACGTGTGGGC: 0.12 kcal/mol.
For ATTGTCACGTGTTTGA, the “relative binding free energy” value was 0.23 kcal/mol.
Next, TCTATCACGTGTTAGG: -0.01 kcal/mol.
Next, TGACGCACGTGTAGTG: -0.22 kcal/mol; AGGGGCACGTGGTCCG: -0.24 kcal/mol.
In the case of CGAGACACGTGGTAGG, the “relative binding free energy” value was -0.1 kcal/mol.
Turning to GCGTGCACGTGCGTTG, the “relative binding free energy” value is -0.17 kcal/mol.
Next, GCTTTCACGTGGTTGG: 0.38 kcal/mol.
Regarding GGGAACACGTGGGAGG, the “relative binding free energy” value was -0.15 kcal/mol.
Next, GTGGTCACGTGAAATT: 0.43 kcal/mol; GGTGGCACGTGGGCTA: -0.14 kcal/mol.
Next, CAGGGCACGTGAAGGT: -0.03 kcal/mol; GTGTTCACGTGTGATA: 0.28 kcal/mol.
Turning to TTGGTCACGTGTGATA, the “relative binding free energy” value was 0.15 kcal/mol.
As for GAGTTCACGTGGGAGT, the “relative binding free energy” value was 0.32 kcal/mol.
Next, TCTGTCACGTGGTTAA: 0.04 kcal/mol.
Next, GCAATCACGTGAGGGG: 0.31 kcal/mol; AGTGGCACGTGGGTTC: -0.22 kcal/mol; CTTACCACGTGTGGGT: 0.04 kcal/mol.
Regarding GGCGGCACGTGCATGG, the “relative binding free energy” value was -0.16 kcal/mol.
As to GGACTCACGTGGGGAG, the “relative binding free energy” value was 0.23 kcal/mol.
Next, GTTTCCACGTGGGGGA: -0.07 kcal/mol.
The figure for GTTACCACGTGGAGGG is -0.13 kcal/mol; for GAGGGCACGTGGCTTG it is -0.12 kcal/mol; for TAATTCACGTGCTTTT it is 0.13 kcal/mol.
Next, GTGTTCACGTGCTCGT: 0.14 kcal/mol.
For the sequence TGCAGCACGTGGGGGC, the “relative binding free energy” value is -0.15 kcal/mol.
The figure for AATAGCACGTGGATGT is -0.07 kcal/mol; for TTTTACACGTGATGGG it is 0.31 kcal/mol.
The figure for CGTTTCACGTGGTTTA is 0.18 kcal/mol; for ATTTTCACGTGCTAGT it is 0.07 kcal/mol; for TTGCGCACGTGTTGAG it is -0.11 kcal/mol.
Next, ATGTTCACGTGGTGAT: 0.17 kcal/mol.
Regarding TGTGACACGTGCGTGA, the “relative binding free energy” value is -0.13 kcal/mol.
Next, AAAGTCACGTGGCGTA: 0.03 kcal/mol; TGGGACACGTGGAGTG: 0.02 kcal/mol; GTCGGCACGTGGTTCA: -0.01 kcal/mol.
Consider CGGGTCACGTGCTTGG, for which the “relative binding free energy” value came out at 0.21 kcal/mol.
Regarding ATGGCCACGTGGTGGC, the “relative binding free energy” value is -0.1 kcal/mol.
Next, TCAGGCACGTGTTTTA: -0.11 kcal/mol; TAGATCACGTGATTTA: 0.22 kcal/mol; TGCAGCACGTGGCGAG: -0.05 kcal/mol.
As for GTAAACACGTGTTTGA, the “relative binding free energy” value is -0.06 kcal/mol.
With GGGAGCACGTGTCGTG, the “relative binding free energy” value turned out to be 0 kcal/mol.
As for GTTTTCACGTGGTAAA, the “relative binding free energy” value is 0.33 kcal/mol.
Next, ATGGGCACGTGGGAGG: -0.21 kcal/mol; CAGTACACGTGTGTGG: 0.04 kcal/mol.
The figure for GACGGCACGTGAAGGG is 0.37 kcal/mol.
